ChEMBL document CHEMBL5050857, “Mettl3 modulators” (2021)

Experiments:
[1] = Inhibition of METTL16 (unknown origin) using CGAUACAGAGAAGAUUAGCAUACGCAAAUUCGUGAAGCG-biotin and SAM as substrates preincubated for 5 mins followed by substrate addition incubated for 220 mins by TopCount scintillation counting method; set-up: species or system Homo sapiens
[2] = target: T1, N6-adenosine-methyltransferase catalytic subunit (Homo sapiens, UniProt Q86U44); experiment: Inhibition of METTL3 (unknown origin) using UCUGGACUAAA-biotin and 3H-SAM as substrates preincubated for 5 mins followed by substrate addition incubated for 30 mins by TopCount scintillation counting method
T1 sequence (Q86U44 whole entry): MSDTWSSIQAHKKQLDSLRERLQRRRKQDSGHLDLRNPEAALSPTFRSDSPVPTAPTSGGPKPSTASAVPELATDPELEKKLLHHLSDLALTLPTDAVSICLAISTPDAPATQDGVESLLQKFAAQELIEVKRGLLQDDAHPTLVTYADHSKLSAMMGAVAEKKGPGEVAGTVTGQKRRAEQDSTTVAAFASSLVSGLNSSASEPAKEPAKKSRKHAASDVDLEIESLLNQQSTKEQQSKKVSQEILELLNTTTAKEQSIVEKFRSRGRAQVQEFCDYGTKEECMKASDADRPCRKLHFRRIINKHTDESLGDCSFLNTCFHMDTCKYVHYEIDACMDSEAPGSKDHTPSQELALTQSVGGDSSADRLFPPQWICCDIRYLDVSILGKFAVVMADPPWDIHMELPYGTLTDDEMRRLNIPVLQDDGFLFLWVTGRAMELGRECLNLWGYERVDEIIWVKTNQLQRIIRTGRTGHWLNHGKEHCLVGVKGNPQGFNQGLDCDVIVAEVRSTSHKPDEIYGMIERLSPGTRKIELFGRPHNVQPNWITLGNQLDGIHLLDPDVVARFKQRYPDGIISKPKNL

[3] = test system: MOLM-13; experiment: Antiproliferative activity against human MOLM-13 cells after 48 hrs by Cell Titer-Glo assay; format: functional, cell-based; conditions: MOLM-13, 48 h
[4] = target: T1, N6-adenosine-methyltransferase catalytic subunit; experiment: Inhibition of METTL3-mediated m6A methylation in human MOLM-13 cells assessed as reduction in mRNA level measured after 24 hrs by LC-MS/MS analysis; format: cell-based
[5] = test system: MOLM-13; experiment: Antiproliferative activity against human MOLM-13 cells after 96 hrs by Cell Titer-Glo assay; format: functional, cell-based; conditions: MOLM-13, 96 h

Structure (SMILES)	IC50 [1]	IC50 [2]	IC50 [3]	IC50 [4]	IC50 [5]
Nc1ncnc2c1ccn2[C@@H]1C[C@H](CCc2ccc3ccc(N4CCCC4)nc3c2)[C@@H](O)[C@H]1O	≥ 1 µM	≤ 1 µM	–	–	–
CNc1ccc2ccc(OC[C@H]3O[C@@H](n4cc(C5CCCC5)c5c(N)ncnc54)C[C@@H]3O)cc2n1	–	< 0.01 µM	1 µM	1 µM	< 1 µM
CNc1ccc2cnc(OC[C@H]3O[C@@H](n4cc(Br)c5c(N)ncnc54)[C@H](O)[C@@H]3O)nc2n1	≥ 1 µM	≥ 1 µM	–	–	≥ 10 µM
CNc1ccc2ccc(OC[C@H]3O[C@@H](n4cc(C5=CCNC5)c5c(N)ncnc54)[C@@H](F)[C@@H]3O)cc2n1	≥ 1 µM	≤ 0.1 µM	–	–	–
CNc1ccc2ccc(OC[C@H]3O[C@@H](n4cc(-c5cccnc5)c5c(N)ncnc54)[C@@H](F)[C@@H]3O)cc2n1	≥ 1 µM	≤ 0.1 µM	–	–	–
Nc1cc(C2CC2)nc2cc(OC[C@H]3O[C@@H](n4cc(Br)c5c(N)ncnc54)[C@@H](F)[C@@H]3O)ccc12	≥ 1 µM	≤ 0.1 µM	–	–	–
Nc1ncnc2c1ccn2[C@@H]1O[C@H](CCc2ccc3ccc(N4CCCC4)nc3c2)[C@@H](O)[C@H]1O	≥ 1 µM	≤ 0.1 µM	–	–	1 µM
CNc1ccc2ccc(OC[C@H]3C[C@@H](n4cc(C5CCCC5)c5c(N)ncnc54)C[C@@H]3O)cc2n1	≥ 1 µM	≤ 0.1 µM	–	–	–
CNc1ccc2cc(OC[C@H]3O[C@@H](n4cc(C)c5c(N)ncnc54)[C@H](O)[C@@H]3O)ccc2n1	≥ 1 µM	≤ 0.1 µM	–	–	–
CNc1ccc2ccc(OC[C@H]3O[C@@H](n4cc(C5CCN(C)C5)c5c(N)ncnc54)[C@@H](F)[C@@H]3O)cc2n1 (some centres undefined)	≥ 1 µM	≤ 0.1 µM	–	–	–
CNc1ccc2ccc(OC[C@H]3O[C@@H](n4ccc5c(N)ncnc54)[C@@H](F)[C@@H]3O)cc2n1	–	< 0.01 µM	–	1 µM	–
CCNc1ccc2ccc(OC[C@H]3C[C@@H](n4ccc5c(N)ncnc54)[C@H](O)[C@@H]3O)cc2n1	≥ 1 µM	≤ 0.1 µM	–	–	–
Cn1ccnc1-c1ccc2ccc(OC[C@H]3O[C@@H](n4cc(Br)c5c(N)ncnc54)[C@@H](F)[C@@H]3O)cc2n1	≥ 1 µM	≥ 1 µM	–	–	–
CNc1ccc2ccc(OC[C@@H]3C[C@@H](O)[C@H](n4cc(C5CCCC5)c5c(N)ncnc54)O3)cc2n1	≥ 1 µM	≤ 1 µM	–	–	–
CNc1ccc2ccc(OC[C@H]3O[C@@H](n4cc(C(F)(F)F)c5c(N)ncnc54)[C@@H](F)[C@@H]3O)cc2n1	≥ 1 µM	≤ 0.1 µM	–	–	–
CCNc1ccc2ccc(OC[C@H]3O[C@@H](n4ccc5c(N)ncnc54)[C@H](O)[C@@H]3O)cc2n1	≥ 1 µM	< 0.01 µM	–	–	–
CNc1ccc2ccc(OC[C@H]3O[C@@H](n4cc(C)c5c(N)ncnc54)[C@@H](F)[C@@H]3O)cc2n1	≥ 1 µM	≤ 0.1 µM	–	–	–
CNc1ccc2ccc(OC[C@H]3O[C@@H](n4cc(Br)c5c(N)nccc54)[C@@H](F)[C@@H]3O)cc2n1	≥ 1 µM	≤ 1 µM	–	–	–
Nc1ncnc2c1ccn2[C@@H]1C[C@H](COc2ccc3ccc(N4CCCC4)nc3c2)[C@@H](O)[C@H]1O	≥ 1 µM	≤ 1 µM	–	–	–

Structure (SMILES)	IC50 [1]	IC50 [2]	IC50 [3]	IC50 [4]	IC50 [5]
CN(C)Cc1cccc(OC[C@H]2O[C@@H](n3cc(Br)c4c(N)ncnc43)[C@@H](F)[C@@H]2O)c1	≥ 1 µM	≥ 1 µM	–	–	–
CNc1ccc2ccc(OC[C@H]3O[C@@H](n4ccc5c(N)nc(C(=O)OC)nc54)[C@@H](F)[C@@H]3O)cc2n1	≥ 1 µM	≥ 1 µM	–	–	–
CNc1ccc2ccc(OC[C@H]3O[C@@H](n4cc(C5CCN(C)CC5)c5c(N)ncnc54)[C@@H](F)[C@@H]3O)cc2n1	≥ 1 µM	≤ 0.1 µM	–	–	–
Nc1ccc2ccc(OC[C@H]3O[C@@H](n4cc(Br)c5c(N)ncnc54)[C@H](O)[C@@H]3O)cc2n1	≥ 1 µM	≤ 0.1 µM	–	–	–
CNc1ccc2ccc(CC[C@H]3C[C@@H](n4ccc5c(N)ncnc54)[C@H](O)[C@@H]3O)cc2n1	–	< 0.01 µM	≥ 10 µM	–	< 1 µM
Nc1cc(N)c2ccc(OC[C@H]3O[C@@H](n4cc(C5CCCC5)c5c(N)ncnc54)[C@H](O)[C@@H]3O)cc2n1	≥ 1 µM	≤ 0.1 µM	–	–	–
Nc1nc2ccc(OC[C@H]3O[C@@H](n4cc(Br)c5c(N)ncnc54)[C@@H](F)[C@@H]3O)cc2[nH]1	≥ 1 µM	≤ 1 µM	–	–	–
CN(CCO)c1ccc2ccc(OC[C@H]3O[C@@H](n4cc(-c5ccn(C)n5)c5c(N)ncnc54)[C@@H](F)[C@@H]3O)cc2n1	–	< 0.01 µM	1 µM	–	< 1 µM
Cc1cc(N)c2ccc(OC[C@H]3O[C@@H](n4cc(Br)c5c(N)ncnc54)[C@@H](F)[C@@H]3O)cc2n1	≥ 1 µM	≤ 0.1 µM	–	–	–
Cn1ccc(-c2cn([C@@H]3C[C@H](CCc4ccc5ccc(N6CCC6)nc5c4)[C@@H](O)C3)c3ncnc(N)c23)n1	–	< 0.01 µM	–	1 µM	< 1 µM
Nc1ncnc2c1c(Br)cn2[C@@H]1O[C@H](COc2ccc3ccc(N4CCCC4)nc3c2)[C@@H](O)[C@H]1O	≥ 1 µM	≤ 0.1 µM	–	–	–
CCc1cc(NC)c2ccc(OC[C@H]3O[C@@H](n4cc(-c5ccn(C)n5)c5c(N)ncnc54)[C@@H](F)[C@@H]3O)cc2n1	–	< 0.01 µM	≥ 10 µM	≥ 10 µM	–
CNc1ccc2ccc(OC[C@H]3O[C@@H](n4cc(C5CCCCC5)c5c(N)ncnc54)[C@H](O)[C@@H]3O)cc2n1	–	< 0.01 µM	–	1 µM	–
CCc1cc(N)c2ccc(OC[C@H]3O[C@@H](n4cc(Br)c5c(N)ncnc54)[C@@H](F)[C@@H]3O)cc2n1	≥ 1 µM	≤ 0.1 µM	–	–	–
CCc1cc(N(C)C2CC2)c2ccc(OC[C@H]3O[C@@H](n4cc(-c5ccn(C)n5)c5c(N)ncnc54)[C@@H](F)[C@@H]3O)cc2n1	–	< 0.01 µM	1 µM	–	1 µM
CNc1ccc2ccc(OC[C@H]3O[C@@H](n4cc(-c5ccnn5C)c5c(N)ncnc54)[C@@H](F)[C@@H]3O)cc2n1	≥ 1 µM	≤ 0.1 µM	–	–	–
Nc1ccnc2cc(OC[C@H]3O[C@@H](n4cc(Br)c5c(N)ncnc54)[C@@H](F)[C@@H]3O)ccc12	≥ 1 µM	≤ 1 µM	–	–	≥ 10 µM
Cc1cn2cc(CC[C@H]3C[C@@H](n4ccc5c(N)ncnc54)[C@H](O)[C@@H]3O)ccc2n1	≥ 1 µM	≥ 1 µM	–	–	–
Nc1ncnc2c1c(-n1ccc(C(F)(F)F)n1)cn2[C@H]1C[C@H](O)[C@@H](COc2ccc3ccc(N4CCC4)nc3c2)O1	–	< 0.01 µM	1 µM	–	1 µM

Structure (SMILES)	IC50 [1]	IC50 [2]	IC50 [3]	IC50 [4]	IC50 [5]
Cc1ccn(-c2cn([C@@H]3O[C@H](COc4ccc5ccc(N6CCC6)nc5c4)[C@@H](O)[C@@H]3F)c3ncnc(N)c23)n1	–	< 0.01 µM	–	1 µM	1 µM
CNc1ccc2ccc(OC[C@H]3O[C@@H](n4cc(-c5cc(F)cc(F)c5)c5c(N)ncnc54)[C@@H](F)[C@@H]3O)cc2n1	≥ 1 µM	≤ 1 µM	–	–	–
Nc1ccc2ccc(CC[C@H]3C[C@@H](n4cc(C5CCCC5)c5c(N)ncnc54)[C@H](O)[C@@H]3O)cc2n1	–	≤ 0.1 µM	1 µM	–	< 1 µM
CNc1ccc2ccc(OC[C@H]3O[C@@H](n4cc([C@@H]5CCCO5)c5c(N)ncnc54)[C@@H](F)[C@@H]3O)cc2n1	–	< 0.01 µM	1 µM	–	< 1 µM
CCc1cc(NCCOC)c2ncc(OC[C@H]3O[C@@H](n4cc(-c5ccn(C)n5)c5c(N)ncnc54)[C@H](O)[C@@H]3O)cc2n1	–	< 0.01 µM	≥ 10 µM	–	1 µM
CCNc1ccc2ccc(CC[C@H]3O[C@@H](n4ccc5c(N)ncnc54)[C@H](O)[C@@H]3O)cc2n1	≥ 1 µM	≤ 0.1 µM	–	–	–
CNc1ccc2ccc(OC[C@H]3O[C@@H](n4cc(-c5cnn(C)c5)c5c(N)ncnc54)[C@@H](F)[C@@H]3O)cc2n1	≥ 1 µM	≤ 0.1 µM	–	–	–
CNc1ccc2ccc(OC[C@H]3O[C@@H](n4cc(C5=CCN(C)CC5)c5c(N)ncnc54)[C@@H](F)[C@@H]3O)cc2n1	≥ 1 µM	≤ 0.1 µM	–	–	–
CCc1cc(N(C)CC2CC2)c2ccc(OC[C@H]3O[C@@H](n4cc(-c5ccn(C)n5)c5c(N)ncnc54)[C@@H](F)[C@@H]3O)cc2n1	–	< 0.01 µM	1 µM	–	< 1 µM
Nc1ncnc2c1c(-n1cccn1)cn2[C@H]1C[C@H](O)[C@@H](COc2ccc3ccc(N4CCC4)nc3c2)O1	–	< 0.01 µM	1 µM	–	1 µM
Cn1ccc(-c2cn([C@@H]3O[C@H](COc4ccc5ccc(N6CCC6)nc5c4)[C@@H](O)[C@@H]3F)c3ncnc(N)c23)n1	≥ 1 µM	–	< 1 µM	–	< 1 µM
CCc1cc(N(C)C)c2ccc(OC[C@H]3O[C@@H](n4cc(-c5ccn(C)n5)c5c(N)ncnc54)[C@@H](F)[C@@H]3O)cc2n1	–	< 0.01 µM	1 µM	–	< 1 µM
CNc1ccc2ccc(OC[C@H]3O[C@@H](n4cc(-c5ccccn5)c5c(N)ncnc54)[C@@H](F)[C@@H]3O)cc2n1	–	< 0.01 µM	–	1 µM	–
Nc1ncnc2c1ccn2[C@@H]1O[C@H](COc2ccc3ccc(N4CCCC4)nc3c2)[C@@H](O)[C@H]1O	–	≤ 0.1 µM	≥ 10 µM	1 µM	–
CCc1cc(N(C)CC2CC2)c2ccc(OC[C@H]3O[C@@H](n4cc(-c5ccn(C)n5)c5c(N)ncnc54)C[C@@H]3O)cc2n1	–	< 0.01 µM	1 µM	–	1 µM
Cn1ccc(-c2cn([C@@H]3C[C@H](COc4ccc5ccc(N6CCC6)nc5c4)[C@@H](O)C3)c3ncnc(N)c23)n1	–	< 0.01 µM	–	1 µM	–
Cc1cc(N)c2ccc(OC[C@H]3O[C@@H](n4cc(Br)c5c(N)ncnc54)C[C@@H]3O)cc2n1	≥ 1 µM	≤ 1 µM	–	–	≥ 10 µM
CNc1ccc2ccc(OC[C@H]3O[C@@H](n4cc(Br)c5c(N)nc(N)nc54)[C@@H](F)[C@@H]3O)cc2n1	≥ 1 µM	≤ 1 µM	–	–	–
